Values joined by “and” are separate entries in the source; they are usually repeats but may differ in a detail not shown here. Identical values can stand only once. The whole screen tested about 110,000 compounds, of which about 230 (0.21%) showed an effect of 50% or more. Some of the results follow.
Each compound was assayed against DPAP1 (Plasmodium falciparum, UniProt Q8IIJ9) (assay: primary screen, percent inhibition; read by cleavage of a fluorogenic dipeptide substrate; higher = more effect of the substance).
Set-up: species or system P. falciparum D10 trophozoite lysates; single well
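Also: 30 min substrate incubation versus DMSO and 10 µM JCP410 controls.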

Chain of DPAP1 (Q8IIJ9 whole entry, looked up): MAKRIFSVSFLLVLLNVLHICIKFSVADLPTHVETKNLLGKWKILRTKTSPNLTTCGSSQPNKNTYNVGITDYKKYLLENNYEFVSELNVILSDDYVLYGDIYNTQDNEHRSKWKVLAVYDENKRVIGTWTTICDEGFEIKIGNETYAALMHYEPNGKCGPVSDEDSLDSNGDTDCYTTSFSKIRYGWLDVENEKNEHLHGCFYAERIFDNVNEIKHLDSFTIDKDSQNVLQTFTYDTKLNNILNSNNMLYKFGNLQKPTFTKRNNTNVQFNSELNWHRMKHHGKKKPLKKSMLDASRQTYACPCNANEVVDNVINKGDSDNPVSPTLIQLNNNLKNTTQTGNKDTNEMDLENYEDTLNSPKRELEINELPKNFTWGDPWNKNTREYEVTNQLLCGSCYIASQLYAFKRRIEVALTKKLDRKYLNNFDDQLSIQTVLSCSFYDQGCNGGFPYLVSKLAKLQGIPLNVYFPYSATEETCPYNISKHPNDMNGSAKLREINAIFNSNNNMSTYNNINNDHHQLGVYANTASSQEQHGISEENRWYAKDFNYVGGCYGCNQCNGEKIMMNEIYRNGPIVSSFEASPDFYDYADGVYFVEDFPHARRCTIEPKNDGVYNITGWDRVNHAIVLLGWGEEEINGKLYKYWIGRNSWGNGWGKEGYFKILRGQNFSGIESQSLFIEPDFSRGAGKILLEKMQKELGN

Structure (SMILES)	% Inhibition @ 10 uM
CC(=O)Nc1nc2nc(-c3ccccc3)cc(O)n2n1	-1.56%
CCCOC(=O)Nc1sc2c(c1C(=O)OCC)CCCC2	9.47%
CCN(Cc1ccccc1)S(=O)(=O)c1ccc(-c2ccc(O)nn2)o1	-4.99%
COc1ccc(OC)c(CN2CCN(Cc3ccco3)CC2)c1	-4.71%
COc1cc(CNc2ccc3c(c2)OCCO3)ccc1OCC(N)=O	-5.14%
CCC(C)c1ccc(NC(=O)CCC(=O)O)cc1 (centres unmarked)	2.08%
O=C1C2C3CCC(O3)C2C(=O)N1c1nc[nH]n1 (centres unmarked)	0.716%
Cc1ccc(C(=O)Nc2sc3c(c2C#N)C(C)(C)OC3(C)C)cc1	-2.63%
COc1cc(C2C(C#N)=C(N)Oc3[nH]nc(C)c32)ccc1COc1ccc(F)cc1 (centres unmarked)	0.385%
CCN(CC)C(=O)C1C(=O)NC2(C)CC1c1ccccc1O2 (centres unmarked)	-7.83%
O=C1NC(Nc2nccs2)(C(F)(F)F)C(=O)N1CCc1ccccc1 (centres unmarked)	1.91%
COCCNS(=O)(=O)c1c(C)nc2sccn2c1=O	-9.75%
O=S(=O)(NCc1ccccc1)c1ccc(Cl)cc1	2.76%
CC1CCN(S(=O)(=O)c2ccc(C(=O)N3CCN(Cc4ccccc4)CC3)cc2)CC1	-2.19%
Cc1ccnc(NC(=O)c2cccc(S(=O)(=O)N3CCOCC3)c2)c1	0.189%
CN1CCN(Cc2ccc(Br)s2)CC1	1.63%
O=C(Cn1cc(S(=O)(=O)N2CCCC2)c(S(=O)(=O)N2CCCC2)c1)Nc1nccs1	-1.54%
Cc1cccc(C(=O)Nc2ccc3oc(-c4cccnc4)nc3c2)c1	0.843%
Cc1ccc2c(c1)-c1c(cnn1CC(=O)NC1CCCC(C)C1C)CO2 (centres unmarked)	-9.67%
Cc1cc(S(=O)(=O)NCc2cccnc2)ccc1F	0.727%
Cn1c(SCc2ccc(Cl)cc2)nc(=O)c2c1NC(=O)CC2c1cc(F)ccc1F (centres unmarked)	-1.11%
C=CCSC1=C(C#N)C(c2cc(Br)c(O)c(OC)c2)CC(=O)N1 (centres unmarked)	6.23%
COc1ccc(-c2cc(C(=O)NC(Cc3ccccc3)C(=O)O)c(C)o2)cc1OC (centres unmarked)	-3.5%
CC1CN(S(=O)(=O)c2ccc(Cl)c(C(=O)Nc3ccc(O)cc3)c2)CC(C)O1 (centres unmarked)	-8.59%
O=S(=O)(c1cccc2nsnc12)N1CCN(C(c2ccccc2)c2ccccc2)CC1	3.21%
O=[N+]([O-])c1ccc(SCCSc2ccc([N+](=O)[O-])cc2)cc1	0.505%

Structure (SMILES)	% Inhibition @ 10 uM
Cc1cc(C)cc(N(CC(=O)N2CCN(c3ccccc3F)CC2)S(C)(=O)=O)c1	9.62%
COc1ccc(/C(O)=C/C=N/c2ccc(F)cc2F)cc1OC	1.08%
COc1ccccc1OCC(=O)Nc1nc(-c2cccs2)c(NC(=O)c2ccccc2)s1	-7.02%
Cn1cnc2cc(NC(=O)c3ccco3)ccc21	-4.52%
CC1C=CC(C)[C@H](C(=O)O)[C@H]1C(=O)O (some centres unmarked)	4.82%
CCOC(=O)c1nnn(-c2ccc(C)cc2C)c1C(=O)OCC	-1.58%
CCC(C)(C(=O)Nc1c(C)cccc1C)N(C)C(=O)CN1C(=O)c2ccccc2C1=O (centres unmarked)	6.61%
Cc1nn(CC(=O)NCCC2=CCCCC2)c(=O)c2cc3ccccc3n12	1.38%
O=C1C=C(Nc2ccccc2)C(=O)N1c1ccccc1Cl	5.9%
Cc1ccc(NC(=O)CN2C(=O)S/C(=C\c3cc4c(cc3Cl)OCO4)C2=O)cc1	-3.71%
C=Cc1ccc(Cn2c(C(=O)O)c(CNC3CCN(C(=O)OCC)CC3)c3ccccc32)cc1	5.09%
CC1CC(C)(C)N(C=O)c2ccccc21 (centres unmarked)	-2.08%
CCN1CCN(Cc2cc(Br)c(O)c(OC)c2)CC1	1.55%
Cc1ccc(C(=O)Nc2ccc(C(C)C)cc2)o1	0.316%
COc1cccc2cc(S(=O)(=O)c3ccc(C(C)(C)C)cc3)c(=O)oc12	-9.17%
Cc1ccc(OC(C)C(=O)Nc2ccc(O)cc2)cc1 (centres unmarked)	1.28%
CC(C)CNS(=O)(=O)c1ccc(OCC(=O)Nc2cc(C(F)(F)F)ccc2Cl)cc1	1.64%
Cc1noc(/C=C/c2ccccc2F)c1S(=O)(=O)N1CCC(C(=O)NC(C)C)CC1	-5.27%
Fc1cccc(F)c1CN1CCOCC1	-5.31%
Cc1ccccc1-c1ccc(C(=O)N[C@@H](CC(C)C)C(=O)NCC#N)s1	-10.1%
N#CC1=C(N)OC2=C(C(=O)CC(c3ccccc3)C2)C1c1cccc(Br)c1 (centres unmarked)	-7.5%
COc1ccc(-c2cc(C(F)(F)F)n3nc(C(=O)N4CCOCC4)cc3n2)cc1	0.812%
O=C(Nc1ccc(S(=O)(=O)Nc2nccs2)cc1)c1cccc(Oc2ccccc2)c1	1.24%
COc1ccc(OC)c(NC(=O)Cc2ccc(Br)cc2)c1	-2.76%
NC(=O)C1CCCN(Cc2ccccc2C(F)(F)F)C1 (centres unmarked)	-4.04%
COc1ccc(CNC(=O)c2ccc(CS(=O)(=O)Cc3ccccc3F)o2)cc1	0.718%

Structure (SMILES)	% Inhibition @ 10 uM
COc1cc(S(=O)(=O)Nc2cccnc2)c(OC)cc1Cl	-10.2%
COc1cc(C2C(C#N)=C(N)Oc3c2c(C)nn3-c2ccccc2)cc(OC)c1OC (centres unmarked)	-2.89%
Oc1nc(SCc2cccc3nsnc23)nc2ccccc12	4.55%
O=C(CCCOc1ccc(Cl)cc1Cl)N1CCCCC1CO (centres unmarked)	0.215%
Cc1ccc(C2=NS(=O)(=O)N(C)C(C(=O)N3CCN(Cc4ccccc4)CC3)=C2)cc1	-1.06%
O=C(O)CCCCCN1C(=O)C(O)=C(C(=O)/C=C/c2ccccc2)C1c1ccccc1 (centres unmarked)	-7.58%
CCn1cc(Cl)c(C(=O)NC(C)c2ccc(C(C)(C)C)cc2)n1 (centres unmarked)	0.658%
CN(Cc1ccc(Cl)cc1)S(=O)(=O)c1nnc(NC(=O)c2cccs2)s1	-3.8%
Cc1ccc(OCCCCc2c(C)n[nH]c2C)cc1C	0.815%
COc1ccc(Cl)cc1NC(=O)COc1ccccc1C(C)C	2.76%
CCOc1ccc(CCNc2cnnc3c(Cl)cccc23)cc1OCC	-0.705%
CC(C)C[C@H](Nc1nc(=O)oc2ccccc12)C(=O)NCC#N	-3.48%
COc1cccc(N(CC(=O)Nc2cc(C)ccc2C)S(=O)(=O)c2ccccc2)c1	-0.333% and 3.72%
CCCN1CNc2nc3ccccc3n2C1	1.72%
COc1ccccc1N1CCN(C(=O)c2cccc(F)c2)CC1	-7.02%
Cc1ccc(CN2C(=O)c3ccc(C)cc3C2=O)cc1	4.44%
CCOc1ccc2nc(SCC(=O)Nc3ccccc3OC)sc2c1	4.32%
CN(CCc1ccccc1)Cc1ccc(O)cc1	0.472%
O=C(Nc1nc(-c2ccc(F)cc2F)cs1)c1ccc2c(c1)OCO2	-3.72%
Cc1ccc2nc3c(O)n(CCN4CCCCC4C)cnc-3c2c1 (centres unmarked)	4.8%
COc1ccc(C2CC(=O)C(/C=N/Cc3ccccc3)=C(O)C2)cc1 (centres unmarked)	0.685%
COc1ccc(CCC(=O)Nc2ccc(C)cc2Br)cc1	2.01%
O=C1CCCC2=C1C(c1ccc(Cl)cc1)C1=C(CCCC1=O)O2	1.9%
CC(C)CCNC(=O)c1cc2oc3ccccc3c2n1C	-0.281%
O=C(NCc1ccccc1)c1ccccc1NC(=O)C1CC=CCC1C(=O)O (centres unmarked)	-2.29%
Oc1ccc(CNc2ccc(F)cc2)c2cccnc12	2.84%

Structure (SMILES)	% Inhibition @ 10 uM
CCOc1ccc(-c2nonc2NC(=O)COc2c(C)cccc2C)cc1OCC	-1.47%
CC(C)(C)OC(=O)N1CCC(c2c(C(=O)Nc3cccnc3)cnn2-c2ccccc2)CC1	5.53%
O=S(=O)(c1cccc(S(=O)(=O)N2CCOCC2)c1)c1ccc(Cl)c(S(=O)(=O)N2CCOCC2)c1	3.25%
Cc1cc(C(=O)O)c2c(C)nn(-c3ccc(C)c(C)c3)c2n1	2.39%
N#CCN1C(=O)C(O)=C(C(=O)c2ccccc2)C1c1cccnc1 (centres unmarked)	0.408%
Cc1ccc(CS(=O)(=O)CCC(=O)NCCCN2CCCC2)cc1	2.18%
O=C(O)c1ccc(-c2nnc(-c3cccc(Br)c3)o2)cc1	1.26%
CCn1c2ccccc2c2nnc(NCCc3ccc(Cl)cc3)nc21	3.92%
COc1ccc(C(=O)Nc2ccc3ccccc3c2)c(OC)c1	0.467%
CCCCOc1ccc(NC(=O)c2ccc(F)cc2)cc1	2.13%
CNS(=O)(=O)c1cn(CC(=O)Nc2nccs2)cc1S(=O)(=O)NC	-2.68%
CCCCN(C)c1ncnc2c1sc1nc(C(C)C)c3c(c12)CC(C)(C)OC3	-3.13%
O=C(Cn1cnc2c(oc3ccccc32)c1=O)NCc1ccc(F)cc1	-3.27%
CC(C)COc1ccc(C(O)C(CN2CCCC2)c2ccccc2)cc1 (centres unmarked)	2.78%
COc1ccc(OC)c(C2CC(=O)N(c3sc4c(c3C#N)CCCCC4)C3=C2C(=O)CCC3)c1 (centres unmarked)	2.72%
CCCc1cc(O)nc(SCC(=O)Nc2ccccc2)n1	-10.8%
O=C(NCCN1CCOCC1)c1cc(-c2ccc(Cl)cc2Cl)nc2ccccc12	-1.89%
CCOC(=O)N1CCN(C2CCC(C)C2)CC1 (centres unmarked)	1.74%
FC(F)Oc1ccccc1C1CC(c2ccc(Br)cc2)Nc2nnnn21 (centres unmarked)	-5.19%
CC1=C(C)CC(C(=O)NCc2ccc(F)cc2)C(C(=O)O)C1 (centres unmarked)	8.6%
COc1ccc(OC)c(-c2nc(C)sc2CC(=O)O)c1	0.032%
CCC(C)NCc1c(C(=O)O)n(Cc2ccccc2F)c2cc(C)ccc12 (centres unmarked)	-1.08%
CCc1c(C)sc(NC(=O)c2cc(-c3ccc(Cl)cc3)on2)c1C#N	-4.07%
